Data on one protein can be found in patent publication US20100240080.

For this data set, the target named is T1, Abl 1 substrate, SEQ ID NO: 3 (EAEAIYAAPGDK), modified with 7-hydroxycoumarin and 5-FAM.
T1 chain: EAEAIYAAPGDK

B1: Abl 1 kinase (protein)
chain: MLEICLKLVGCKSKKGLSSSSSCYLEEALQRPVASDFEPQGLSEAARWNSKENLLAGPSE[about 60 residues not given here]LEKHSWYHGPVSRNAAEYLLSSGINGSFLVRESESSPGQRSISLRYEGRVYHYRINTASDGKLYVSSESRFNTLAELVHHHSTVADGLITTLHYPAPKRNKPTVYGVSPNYDKWEMERTDITMKHKLGGGQYGEVYEGVWKKYSLTVAVKTLKEDTMEVEEFLKEAAVMKEIKHPNLVQLLGVCTREPPFYIITEFMTYGNLLDYLRECNRQEVNAVVLLYMATQISSAMEYLEKKNFIHRDLAARNCLVGENHLVKVADFGLSRLMTGDTYTAHAGAKFPIKWTAPESLAYNKFSIKSDVWAFGVLLWEIATYGMSPYPGIDLSQVYELLEKDYRMERPEGCPEKVYELMRACWQWNPSDRPSFAEIHQAFETMFQESSISDEVEKELGKQGVRGAVSTLLQAPELPTKTRTSRRAAEHRDTTDVPEMPHSKGQGESDPLDHEPAVSPLLPRKERGPPEGGLNEDERLLPKDKKTNLFSALIKKKKKTAPTPPKRSSSFREMDGQPERRGAGEEEGRDISNGALAFTPLDTADPAKSPKPSNGAGVPNGALRESGGSGFRSPHLWKKSSTLTSSRLATGEEEGGGSSSKRFLRSCSASCVPHGAKDTEWRSVTLPRDLQSTGRQFDSSTFGGHKSEKPALPRKRAGENRSDQVTRGTVTPPPRLVKKNEEAADEVFKDIMESSPGSSPPNLTPKPLRRQVTVAPASGLPHKEEAGKGSALGTPAAAEPVTPTSKAGSGAPGGTSKGPAEESRVRRHKHSSESPGRDKGKLSRLKPAPPPPPAASAGKAGGKPSQSPSQEAAGEAVLGAKTKATSLVDAVNSDAAKPSQPGEGLKKPVLPATPKPQSAKPSGTPISPAPVPSTLPSASSALAGDQPSSTAFIPLISTRVSLRKTRQPPERIASGAITKGVVLDSTEALCLAISRNSEQMASHSAVLEAGKNLYTFCVSYVDSIQQMRNKFAFREAINKLENNLRELQICPATAGSGPAATQDFSKLLSSVKEISDIVQR
As for B1, the % Phosphorylation at 0.50 ng Abl 1 kinase per well is 10%, the % Phosphorylation at 0.75 ng Abl 1 kinase per well worked out at 15%, the % Phosphorylation at 1.00 ng Abl 1 kinase per well is 23% and the % Phosphorylation at 1.30 ng Abl 1 kinase per well was determined as 30%. The % Phosphorylation at 1.50 ng Abl 1 kinase per well is 35%, the % Phosphorylation at 2.00 ng Abl 1 kinase per well amounted to 46%, the % Phosphorylation at 2.50 ng Abl 1 kinase per well was found to be 53% and the % Phosphorylation at 3.00 ng Abl 1 kinase per well amounted to 61%. This protein also showed a % Phosphorylation at 3.50 ng Abl 1 kinase per well of 79%.
